Laboratory results published in PubChem BioAssay AID493208 (National Center for Advancing Translational Sciences (NCATS), 2011).
Among all 44,000 compounds or so, about 340 (0.77%) were called active. Roughly 5% stayed inconclusive and do not appear here. Calls come from the whole dose curve; as a rule, active = well fitted inhibition curve with a large enough effect; inconclusive = small, poorly fitted or top-dose-only effect; inactive = flat fitted curve, though single readings scatter. This is one part of the list.

Experiment: Acumen qHTS Assay for Inhibitors of the mTORC1 Signaling Pathway in MEF (Tsc2-/-, p53-/-) Cells: Sytravon;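 note: plate controls were DMSO for no effect and rapamycin for full effect; nearly all actives have a fitted effect of over 50% in size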
Conditions: phospho-rpS6 immunofluorescence/PI, 24 h; series mostly up to 38.3 µM; activity change, negative = inhibition: at the top concentration
Outline: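 Readout is phospho-S6 Alexa 488 signal normalized to PI per well, reported as % active cells with thresholds set from rapamycin (7.5 nM) and DMSO controls. Cells: Tsc2-/-, p53-/- MEFs, 24 hrs compound at 37 C; PI cell number serves as viability.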

Activity change, negative = inhibition, inactive:
COc1cccc(-n2cc(C(=O)Nc3cc(OC)c(OC)c(OC)c3)c3ccccc3c2=O)c1 -17%
CCc1cccc(C)c1NC(=O)C1CCN(c2nn3c(=O)cc(C)nc3s2)CC1 -0.954%
COc1ccc(-c2cc(C(F)(F)F)nc(SCC(=O)N3CCCCC3C)n2)cc1OC (configuration not stated) -1.68%
Cc1onc(-c2c(F)cccc2Cl)c1C(=O)Nc1ccc(OC(C)C)cc1 -13%
Cc1ccc2oc(=O)c3cc(C(=O)Nc4ccccc4C(N)=O)sc3c2c1 0.571%
COc1ccc(CCNC(=O)c2cc3c(s2)-c2ccccc2OC3)cc1OC -0.204%
Fc1ccc(N2CCN(c3ncnc4c3nc3n4CCCCC3)CC2)cc1 3.98%
Cc1cccc(NC(=O)Nc2ccc(Br)cc2)n1 5.62%
O=C1CCCc2cc(S(=O)(=O)NCC3CCC(C(=O)NCc4ccccc4Cl)CC3)ccc2N1 (configuration not stated) -14.1%
CCOCCCn1c(=N)c(C(=O)NCc2cccnc2)cc2c(=O)n3cc(C)ccc3nc21 1.7%
CCOC(=O)c1cnc2c(ccc3ccccc32)c1Nc1ccc(OCC)cc1 6.29%
COc1ccc(S(=O)(=O)c2c(O)c3ccc(C(=O)NCc4ccccc4)cc3[nH]c2=O)cc1 3.41%
Cc1ccc(-n2nc3c(N4CCC(C(=O)NC(C)c5ccccc5)CC4)nnc(C)c3c2C)cc1 (configuration not stated) -1.33%
CCOc1ccc(Nc2cc(C)nc3nc(Cc4ccc(Cl)cc4)nn23)cc1 0.0534%
COc1ccccc1N1CCN(C(=O)c2c(C)oc3ncn(CC(C)C)c(=O)c23)CC1 -5.77%
O=C(Cn1ccc2ccccc2c1=O)NCCC(=O)Nc1ccc(F)cc1F -11.9%
CCN(CC)Cc1c(NC(=O)c2ccc(OC)cc2)sc2c1CCCC2 -3.44%
COc1ccc(CCNC(=O)Cn2c(=O)c3cccn3c3ccc(F)cc32)c(OC)c1 -18.3%
CC(=O)Nc1ccc(Nc2nc3c(S(=O)(=O)c4cccc(Cl)c4)nnn3c3ccsc23)cc1 0.426%
COc1ccc(-c2cc(C(=O)Oc3cccc(C)c3)c3cc(C)ccc3n2)cc1 0.371%
COc1ccc(CCNC(=O)c2cnc3sc(N4CCCCC4)nn3c2=O)cc1OC -1.37%
Cc1oc2ncn(CC(C)C)c(=O)c2c1C(=O)NCCCN1CCC(C)CC1 -5.2%
O=C(COc1ccccc1F)OCc1cc(=O)n2nc(C3CC3)sc2n1 -8.86%
Cc1cc(C)cc(-n2c(C)nc3cc(C(=O)NCc4ccccc4Cl)ccc32)c1 1.51%
COc1cccc(C(=O)Nc2ccc(-n3nncc3-c3ccccc3)cc2)c1 18.1%
Cc1ccc(NC(=O)CN2C(=O)CCc3cc(S(=O)(=O)N4CCCCC4)ccc32)cc1C -9.24%
Cc1ccc(NC(=O)c2cc3c(=O)n(Cc4ccco4)ccc3nc2C)cc1C -5.66%
Cc1ccc(CN(C(=O)COc2ccc(Cl)cc2C)C2CCS(=O)(=O)C2)o1 (configuration not stated) -1.94%
CCOC(=O)c1c(NC(=O)c2cc(CC(C)C)on2)sc(C(C)=O)c1C -0.217%
CCCn1c(=O)c2c(nc3n2CCN3c2ccc(C)cc2)n(C)c1=O 5.93%
CSc1ccc(C2c3c(oc4cc(C)cc(C)c4c3=O)C(=O)N2CCO)cc1 (configuration not stated) 0.0534%
Cc1nc2sc(C(=O)N(C)c3ccccc3)c(NC(=O)c3ccccc3Cl)c2c(C)c1C 3.28%
CCOc1ccc(NC(=O)N(Cc2c[nH]c3ccccc23)C2CCCCCC2)cc1 -9.05%
Cc1ccc(NC(=O)c2c(C)oc3ccc(O)c(CN4CCOCC4)c23)c(C)c1 5.23%
COc1ccc(C2C(C(=O)Nc3ccccc3OC)=C(C)Nc3c(C(=O)Nc4ccccc4)cnn32)c(OC)c1 (configuration not stated) 0%
Cc1ccc(OCC(=O)N(Cc2ccco2)Cc2ccco2)cc1C 2.72%
CC(C)CCNC(=O)CCn1c(=O)c2cccn2c2cccnc21 3.03%
COc1cn(CC(=O)Nc2ccccc2)c(CN2CCCCC2)cc1=O 0.489%
CCOc1ccccc1NC(=O)CSc1ncc(S(=O)(=O)c2ccc(C)c(C)c2)c(N)n1 -6.77%
O=C(CSc1nnc(-c2ccccc2F)o1)Nc1ccccc1Cl -3.47%
CCSc1nnc2c(n1)OC(c1ccc(C)s1)Nc1ccccc1-2 (configuration not stated) 3.57%
COc1ccc(CCNC(=O)Cn2cc(S(=O)(=O)Cc3ccccc3Cl)c3ccccc32)cc1OC -6.04%
CCOc1ccc(NC(=O)Cn2nnc(C(=O)NCCc3ccccc3)c2N)cc1 -3.9%
COc1cc(NC(=O)N2CCC3(CC2)Nc2ccccc2-n2cccc23)cc(OC)c1OC -15.8%
COc1ccc(-c2cc(OC(=O)c3cccc(Cl)c3)c3c(C)oc(C)c3c(=O)c2)cc1 2.61%
CCc1nn(CC(=O)Nc2c(C)cccc2C)c(=O)c2cc3sccc3n12 -0.491%
O=C(CSc1nc2c([nH]c3ccccc32)c(=O)n1-c1ccccc1)Nc1ccc(Cl)c(Cl)c1 -5.64%
COc1ccc(-c2noc(-c3ccc(NCC4CCCO4)c([N+](=O)[O-])c3)n2)cc1 (configuration not stated) 3.56%
CNC(=O)c1c(NC(=O)Cc2coc3ccc(C)cc23)sc2c1CCCC2 -19.6%
COc1ccccc1NC(=O)CSc1oc(-c2ccccc2)nc1S(=O)(=O)c1ccc(C)cc1 4.75%
CCOC(=O)c1noc2ncn(CC(=O)Nc3cccc(Cl)c3)c(=O)c12 -4.39%
O=C(CSc1c2c(nc3cc(Cl)ccc13)CCCC2)N1CCN(c2ccccc2F)CC1 -8.63%
O=C(COc1ccc2ccccc2c1)NC1CC(=O)N(c2ccccc2)C1 (configuration not stated) 0.303%
Cc1ccc2nc(-c3cccnc3)c(Nc3ccc(C(C)C)cc3)n2c1 -0.939%
Cc1nc(-c2ccc(S(=O)(=O)N3CCN(c4cc(Cl)ccc4C)CC3)cc2)co1 0.534%
O=C(c1ccc(F)cc1)n1nc(-c2cccnc2)nc1NCc1ccc(F)cc1 -1.55%
O=C(NCCc1ccc(Cl)cc1)C1COc2ccccc2C1 (configuration not stated) -4.64%
Cc1cn2c(=O)c(S(=O)(=O)N3CCN(c4cc(Cl)ccc4C)CC3)c(C)nc2s1 1.9%
O=C(Nc1cccc(-c2nc3cccnc3s2)c1)c1cccc(Br)c1 -1.33%
CCOC(=O)c1ccc(NC(=O)c2cn(-c3ccccc3)nc2-c2ccc(OC)c(OC)c2)cc1 9.27%
N#Cc1ccccc1NC(=O)C(=O)NCCc1csc(-c2ccc(F)cc2)n1 -1.01%
Cc1ccc(S(=O)(=O)c2nc(-c3cccs3)oc2SC(C)C)cc1 -25.7%
O=C(Cn1c(=O)oc2cc(S(=O)(=O)N3CCCC3)ccc21)Nc1ccc(F)cc1F -0.855%
CCNC(=O)CC1C(=O)N(c2ccc(C)cc2)C(=O)N1CCC(C)C (configuration not stated) 1.39%
COc1ccc2c(Sc3ccc(Cl)cc3)c(C(=O)N3CCC(C)CC3)[nH]c2c1 -5.9%
CCOC(=O)c1c(C)oc2nc(C)nc(NCc3cccc(Cl)c3)c12 4.01%
O=C(c1cccc(Cl)c1)n1nc(-c2cccnc2)nc1NCc1ccccc1 4.86%
CCOC(=O)c1nc(Nc2ccc(C(=O)OC)cc2)c2ccccc2n1 -14.8%
CSCCC(NS(=O)(=O)c1ccc2c(c1)oc(=O)n2C)C(=O)N1CCN(c2ccc(C(C)=O)cc2)CC1 (configuration not stated) 1.18%
COc1cccc(C(=O)NCC(=O)OCc2cc(=O)n3ccsc3n2)c1 1.79%
CCc1ccccc1NC(=O)c1ccc(=O)n(Cc2ccc(F)cc2)c1 0.211%
CCc1ccc(-n2c(=O)c3cccnc3n2CC(=O)Nc2cc(OC)ccc2OC)cc1 -0.896%
Cc1ccc(C(=O)Nc2nc(-c3nnn(-c4cccc(C(F)(F)F)c4)c3C)ns2)cc1 3%
COc1cc(OC)cc(C(=O)Nc2nnc3n2CCS3)c1 -14.4%
CC(C)CC(=O)Nc1nnc(SCc2cc(=O)n3ccccc3n2)s1 6.18%
Cc1ccc(CCNC(=O)c2cn(C)c3ccc(S(=O)(=O)N4CCC(C)CC4)cc3c2=O)cc1 1.03%
Cc1cc(C)c(NC(=O)CCCn2c(C)c3cnn(-c4ccccc4)c(=O)c3c2C)c(C)c1 -0.486%
COc1cc(OC)cc(-c2nc3nc(C)c(CCC(=O)NCCC(C)C)c(C)n3n2)c1 -6.42%
CCOC(=O)c1c(S(=O)(=O)NCC(=O)Nc2ccc(F)cc2C)c(C)n(C)c1C -8.56%
COc1ccccc1NC(=O)CN1C(=O)CSc2ccc(S(=O)(=O)N3CCCC3)cc21 -2.64%
CCN(CC)S(=O)(=O)c1ccc2[nH]cc(C(=O)NCCc3ccccc3)c(=O)c2c1 -1.1%
O=c1c(S(=O)(=O)c2cccc(Cl)c2)cn(Cc2ccccc2)c2cc(N3CCCCC3)c(F)cc12 -1.39%
CC(=O)C1=C(c2ccc(Br)cc2)N(C(C)=O)n2c(nnc2C2CCCCC2)S1 -3.79%
CCn1ccc2cc(S(=O)(=O)N3CCC(C(=O)NCCc4ccccc4)CC3)ccc21 1.74%
COc1cc(OC)c(NC(=O)c2c(C)oc3nc(C)nc(N4CCOCC4)c23)cc1Cl -4.06%
COc1cccc(-n2cc(C(=O)OCc3ccc(Cl)cc3)c3ccccc3c2=O)c1 -2.37%
O=C(NCc1ccccc1Cl)c1ccc(Cn2c(=O)c3cccn3c3cccnc32)cc1 -10.2%
Cc1cccc(CNC(=O)c2ccc(C)c(-n3c(C)nc4cccnc43)c2)c1 0%
CCOc1ccc(-n2c(=O)c3c(C)c(C)sc3n(CC(=O)N3CCC(C)CC3)c2=O)cc1 1.96%
COCCCNC(=O)c1cnn(-c2ccc(F)cc2F)c1C1CCNCC1 -5.9%
O=C(Cn1c(=O)oc2cc(S(=O)(=O)NCc3ccccc3)ccc21)NCc1ccccc1Cl -11.6%
Nc1ccc2nc(-c3ccc(O)cc3)sc2c1 -7.36%
COc1ccc(NC(=O)CC2C(=O)N(c3ccc(F)cc3)C(=O)N2CCc2sccc2C)cc1 (configuration not stated) 2.3%
CCOC(=O)c1cc(-c2ccccc2)n(CCC(=O)Nc2cc(C)cc(C)c2)c1C 2.27%
Cc1ccc2scc(N3CCCCC3)c(=O)c2c1 -0.503%
CN(Cc1ccccc1)C(=O)C1CCC(CNS(=O)(=O)c2ccc3c(c2)CCCC(=O)N3)CC1 (configuration not stated) -16.6%
Cc1ccc(N2CCN(C(=O)C3CCN(c4ncnc5c4nc4n5CCCCC4)CC3)CC2)c(C)c1 -1.61%
